The results in this text go back to PMC12136788.

The list shows a part of the results.

B1: chr14:102551731:102551732:-_ENSG00000080824_ENST00000216281|hu_hu|FALSE|FALSE (ssRNA)
RNA: GGGAGUUCUACAGUCCGACGAUCCACAAUCUCCUUUAUUCUUCGUUCCUCCAAGUACUCAGUUUGGUCUUCUUUCAGGUGUAGGAUAACUUUUGUUCCACGACCCAUAGGUUCACCUGUGUCUGUCCUCACUGUGAAUGAUCCCAACAGAGGAUUGAGCAUCA
B2: chr5:92386950:92386951:-_ENSMUSG00000029397_ENSMUST00000031345|mus_hu|motif|central (ssRNA)
RNA: GGGAGUUCUACAGUCCGACGAUCCUGUUGGGCAUGUUGAAUUUUUUCACAGUUUAUGCACUGCACUUCCUUCACUUUAAAGCGAUCGGGUUGAUGAUCUUCAUUGUUAUCAUGACACAAGCGGCAAGUAUAAAGCUUGUCACACAACAGAGGAUUGAGCAUCA
B3: chr12:79978091:79978092:+_ENSMUSG00000021116_ENSMUST00000071230|mus_hu|FALSE|FALSE (ssRNA)
RNA: GGGAGUUCUACAGUCCGACGAUCGCUUUCCAGCUGCUCAUCCUUGGUGUAUUCUAACACCUCAGCAACAUGACGAAGAAUGCUAUAAACAGUUUUGGAUUUUGUGAAUUUGUCUUCACAUUUGAUUGCUUCCUCUGGAGAAACCAACAGAGGAUUGAGCAUCA
B4: chr13:96295345:96295346:-_ENSG00000134874_ENST00000376829|hu_hu|FALSE|FALSE (ssRNA)
RNA: GGGAGUUCUACAGUCCGACGAUCGCACCCAGAACCCUUACAAACUUGGGUCGGGGCUGCAUUCUGGGCUUUGGAGAGGCUAAAAUAUUUCUAGCAGCGACUUGUAGACCUCAGGCCUCUCAUUUCUAUGGGUCUUCUGGGGGCCAACAGAGGAUUGAGCAUCA
B5: 66220149_66220269_713_CDS_ENSMUSG00000038664_ENSMUST00000042824|mouse|control|control (ssRNA)
RNA: GGGAGUUCUACAGUCCGACGAUCCAUAGGAGGAAUCUUGCUUUCAUUUGCUAAAGACAAUGGAGGCAAAGAGCUCACAACUUCAAUUGCAGUAUGAAUAACGUCGUUGCAGAGACUGAGGCCAGGUCCCGACACAGGCAUCAUCAACAGAGGAUUGAGCAUCA
B6: 151522499_151524887_504_3pUTR_ENSMUSG00000034021_ENSMUST00000016569|mouse|control|control (ssRNA)
RNA: GGGAGUUCUACAGUCCGACGAUCUAUAAACAUAAAUAUAUCCUUUAGUUUAUCGGGAGACGUGUAAGGAGCCUCAGGAGCAUAAAUCCUGAAAAUAUCAGCAAGGCAGCAAGCCACCAGUAAACGAACAUCUUUAUCAGGAUGCAACAGAGGAUUGAGCAUCA
B7: chr10:73576327:73576328:-_ENSG00000197746_ENST00000394936|hu_mus|FALSE|FALSE (ssRNA)
RNA: GGGAGUUCUACAGUCCGACGAUCCCCACUGCCAGGCAGACGCUUCACUCAUGAGGUGAACAGGCAGGUCAACAAGAGCUACAGGUGGUGGGAAAGCCGUGCAGGACCCCAAACAGCCAGGCAGAGGCCACACGGUCAAGGGCCCAACAGAGGAUUGAGCAUCA
B8: chr1:46159212:46159213:+_ENSG00000159596_ENST00000372025|hu_mus|hu_hu_hu_mus_True|38_108 (ssRNA)
RNA: GGGAGUUCUACAGUCCGACGAUCUCUGAUCCCACCCAAGAAAGCUAGGAAACCGGCUCCAUAAGCCAUCUGAGUGAAAGCUAGGACGGGGAUAUAAGUUUUUGUCAUUACCAUGAGAAGUGGGGGAGCAGUAAAGGGGAUUAACAACAGAGGAUUGAGCAUCA
B9: chrX:71549762:71549763:+_ENSMUSG00000019087_ENSMUST00000019231|mus_mus|mus_mus_mus_hu_False|1_1 (ssRNA)
RNA: GGGAGUUCUACAGUCCGACGAUCAAACCCGUGUACUUCUUAUUGUUAGCACAACAUCACCAGAAAACGAUAACGACAGCCAAGCAGGACAGACAGUUAAGUAGUACUUCCACACUCCCAAACUCAGGGAGCCCUAUAGUUCAUCAACAGAGGAUUGAGCAUCA
B10: chr4:144460044:144460045:+_ENSG00000153147_ENST00000283131|hu_mus|hu_hu_hu_mus_False|78_78 (ssRNA)
RNA: GGGAGUUCUACAGUCCGACGAUCACGGUCCAUAGCCUGAAGAUCAACUUGCGGAUUCCAAUCAGAAUCAUAUAAAAUGACUACAUCAGCAGUUGCAAGAUUGAUGCCCAGACCACCAGCACGUGUGCUUAGCAUAAAUACAAACAACAGAGGAUUGAGCAUCA
B11: chrX:20248820:20248821:+_ENSMUSG00000001924_ENSMUST00000001989|mus_mus|mus_mus_mus_hu_True|78_108 (ssRNA)
RNA: GGGAGUUCUACAGUCCGACGAUCGGCAAAGUCAGUCACCACAAAGUCAGGUUCUGCCAGUGAUGCUACCAAGGAUUUAAAGCUAAUCUUCUUAGGUACUUUGACCUGACUGACGAUGCCUCCACGGAUGUAGUCGGAGAAGUUCAACAGAGGAUUGAGCAUCA
B12: chr11:87793471:87793472:-_ENSMUSG00000020483_ENSMUST00000020775|mus_mus|mus_mus_mus_hu_False|1_58 (ssRNA)
RNA: GGGAGUUCUACAGUCCGACGAUCUGGACUUGAAAAUAAAAGAAUAAGCUGGAUCCCCCACCCCCCCACAUUGUCAACCCUAUGCGAGAGUUUUGAAGGCGACUCAUGAAAAUCAGCAGCUCAAACGGCAAUGACCACCCACCCCAACAGAGGAUUGAGCAUCA
B13: chr9:95013113:95013114:-_ENSG00000196305_ENST00000443024|hu_hu|hu_hu_hu_mus_False|28_88 (ssRNA)
RNA: GGGAGUUCUACAGUCCGACGAUCCUCAGUCAGAAAGGGCGUGUAAGGAGCCAUAAGUCUGCACAGAGAAAGCAGGACACUGAACAGUGUCUCCAGAGCCAUGACACAAUCCUCCAUCCCACUCUCACCCUUUAACCUCCUCCUCAACAGAGGAUUGAGCAUCA
B14: 59226069_59226793_829_3pUTR_ENSMUSG00000028381_ENSMUST00000030074|mouse|control|control (ssRNA)
RNA: GGGAGUUCUACAGUCCGACGAUCCCAACCCCACUUUCUCUGUCAUCUGAUUCACCAUGUCAGUUAAUGUGUCUGGGAUGACUCUUAUUCCACUAUCACAAAUCCAUAUGAGAUCAUAUUUUGCAACUUCAUAUGCUGGCAUCACAACAGAGGAUUGAGCAUCA
B15: chr10:60036935:60036936:+_ENSG00000122873_ENST00000333926|hu_hu|motif|central (ssRNA)
RNA: GGGAGUUCUACAGUCCGACGAUCGUGAAGGUUUAUCAUAGCUUUAUUUCGAUGAUCUUUAACAUAAAAUCUUUUGUAAGCGGGAUAACCAAUUGCAGCUGUCCCAGCAGCAAUGGUAACUGCUGCGAUCCAUUCAACUCGUACCAACAGAGGAUUGAGCAUCA
B16: chr1:109605286:109605287:-_ENSG00000197780_ENST00000461096|hu_mus|hu_hu_hu_mus_True|78_78 (ssRNA)
RNA: GGGAGUUCUACAGUCCGACGAUCAAGUUUCAGAGUAACAUUCAGUAACCUCUUUAACAAUUGUAAUCCUUAUUAUAAGCUAAGCAGAAUAAUAAUUUAAUACCGUAAGUGAACUACACACAAAGCCUGAACCGCGAAAAUGGUCAACAGAGGAUUGAGCAUCA
B17: chrX:101971874:101971875:+_ENSG00000158301_ENST00000332262|hu_mus|FALSE|FALSE (ssRNA)
RNA: GGGAGUUCUACAGUCCGACGAUCUAUAGUGAGAUGUCUAAGCAUCCUCAUUCCAGUUAGCUGUUCAGGGGAAUUCACGCUAUGUGAAAGUGUCUCCUCACACACUUGACAAAUAAAUGUCUCAAUCAUGUUUAGAUUUGGAUACAACAGAGGAUUGAGCAUCA
B18: 128108328_128108448_903_CDS_ENSMUSG00000049858_ENSMUST00000054764|mouse|control|control (ssRNA)
RNA: GGGAGUUCUACAGUCCGACGAUCAGCCCAGCGUGCUGUGCUGAUGGCCCCUGUUCUCCAUUCCAGACCUUUCACUUCCUUGACCUUACUCAUUUCGGAGCGCCGGUUACCAGCACACUGCAGAGUGACAGUGACCUCAUGUUUCAACAGAGGAUUGAGCAUCA
B19: chr12:3048583:3048584:+_ENSG00000078246_ENST00000448120|hu_hu|FALSE|FALSE (ssRNA)
RNA: GGGAGUUCUACAGUCCGACGAUCGGGAGAAGGGCUCCCUGCCUGACUGUUCUCUCAUUCACACGCCAGCUUACUGUCAAAGCUAGAAAGACCGAUGCCAAAGGCCUGUACUGCACAAAGUGGGUAGUUGUAAUCCAGUGUGAACAACAGAGGAUUGAGCAUCA
B20: chr1:192779330:192779331:+_ENSG00000116741_ENST00000235382|hu_mus|FALSE|FALSE (ssRNA)
RNA: GGGAGUUCUACAGUCCGACGAUCUUGCUGUUUGCUUUUCUUGCCAGUUUUGGGCUUCCCAGGAGCAGAGGAAUUCUGCAAGAAGUAGCUCAAACGGGUCUUCCAAUCCUUUAAGAGUGUCCGCUUCAUUUUCUCCCGCUUCUCCAACAGAGGAUUGAGCAUCA
B21: chr4:117881997:117881998:-_ENSMUSG00000033295_ENSMUST00000150096|mus_mus|FALSE|FALSE (ssRNA)
RNA: GGGAGUUCUACAGUCCGACGAUCUGUCCUUCCGCAGAAGUUGUACAAGAAAGGAUCCAACGUGAACUCAAAAAGGAAAACAAACAAGUCCCAACUCCCACAGCAGCCCCAUCUGCAGUGAAAGACCUGCAAAAGCAAAGUCGGCAACAGAGGAUUGAGCAUCA
B22: chr9:62645482:62645483:-_ENSMUSG00000032244_ENSMUST00000034775|mus_hu|FALSE|FALSE (ssRNA)
RNA: GGGAGUUCUACAGUCCGACGAUCUACUGUGGUAUGGUUCACGUUGGCUCCAUGGCUGACUAGAAGUUUAACAACUUCAAAAUGUCCUGCUCCAGCUGCACACCAAAGAGCAGUGGCACCAUCAAUGACAUACCCGUCGAAGCGCAACAGAGGAUUGAGCAUCA

This assay addresses T1, UNK ZnF1-3 (human, UniProt Q9C0B0 31-174).
T1 sequence: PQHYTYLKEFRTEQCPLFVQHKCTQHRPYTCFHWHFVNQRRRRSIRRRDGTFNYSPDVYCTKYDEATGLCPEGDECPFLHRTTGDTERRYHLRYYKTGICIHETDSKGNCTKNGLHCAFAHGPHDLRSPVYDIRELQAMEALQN
The assay is described as follows: nsRBNS (natural sequence RNA bind-n-seq); RBNS binding buffer (assumed for nsRBNS): 25 mM Tris pH 7.5, 150 mM KCl, 3 mM MgCl2, 0.01% Triton X-100, 500 ug/ml BSA, 20 U/ml SUPERase-In, 4 C; UNK is unkempt and MSI1 is Musashi-1; names of the RNAs are library labels; protein concentration not given here; high values mean tight binding.
In turn, B1 yielded a binding signal of 0.582 enrichment R.

Molecule B2 had a binding signal of 0.472 enrichment R.

B3 had a binding signal of 0.601 enrichment R.

Regarding B4, the binding signal is 0.939 enrichment R.

Turning to B5, the binding signal was determined as 1.49 enrichment R.

Consider B6, for which the binding signal was determined as 1.74 enrichment R.

Regarding B7, the binding signal came to 1.47 enrichment R.

With B8, the binding signal is 1.11 enrichment R.

B9 came in with a binding signal of 1.45 enrichment R.

In the case of B10, the binding signal is 1.25 enrichment R.

Take B11: the binding signal turned out to be 0.742 enrichment R.

As to B12, the binding signal worked out at 1.91 enrichment R.

As to B13, the binding signal came to 1.29 enrichment R.

For B14, the binding signal was 0.983 enrichment R.

With B15, the binding signal came to 0.571 enrichment R.

Molecule B16 yielded a binding signal of 0.908 enrichment R.

B17 registered a binding signal of 0.871 enrichment R.

B18: the binding signal stood at 0.836 enrichment R.

In turn, B19 displayed a binding signal of 1.34 enrichment R.

On to B20, for which the binding signal is 0.655 enrichment R.

In turn, B21 registered a binding signal of 1.19 enrichment R.

B22 returned a binding signal of 0.893 enrichment R.
